# Reference: the antibiotic and cytotoxicity screens of Wong et al. (2023)
# The other results are listed elsewhere or left out.
# System: HepG2
# Assay: cytotoxicity call (relative viability < 0.9)
# Settings: 10 µM
row,Compound,cytotoxicity call
1,O=C(O)[C@@H](O)[C@H](O)C(=O)O,inactive
2,C[C@H]1CN([C@@H](C)CO)C(=O)c2cc(NC(=O)CCN3CCOCC3)ccc2O[C@@H]1CN(C)C(=O)Nc1ccc(F)cc1,inactive
3,COC(=O)C[C@@H]1CC[C@H]2[C@@H](COc3ccc(NS(=O)(=O)c4ccccc4Cl)cc3C(=O)N2C)O1,inactive
4,CC(C)C1=CC2=CCC3C(C)(C(=O)O)CCCC3(C)C2CC1 (stereo not given),inactive
5,COc1ccc(S(=O)(=O)N(C)C[C@@H]2Oc3ccc(NS(=O)(=O)c4cccs4)cc3C(=O)N([C@@H](C)CO)C[C@H]2C)cc1,inactive
6,Cc1noc(C)c1NC(=O)N(C)C[C@H]1Oc2ccc(NC(=O)CCN3CCOCC3)cc2CC(=O)N([C@H](C)CO)C[C@H]1C,inactive
7,COc1ccc(C#Cc2cnc3c(c2)C(=O)N([C@H](C)CO)C[C@H](C)[C@H](CN(C)S(=O)(=O)c2ccc(F)cc2)O3)cc1OC,inactive
8,C[C@@H]1CN([C@@H](C)CO)C(=O)c2c(c3ccccc3n2C)-c2ccccc2CO[C@@H]1CN(C)Cc1cccc(F)c1,inactive
9,O=C(CCCCCNC(=O)OCc1ccc(CO[C@@H]2C[C@H](c3ccc(Br)cc3)C=C(C(=O)N3CCCCCCC3)O2)cc1)NO,inactive
10,CCCNC(=O)N(C)C[C@H]1Oc2ncc(-c3ccc(C(=O)N(C)C)cc3)cc2C(=O)N([C@@H](C)CO)C[C@H]1C,inactive
11,C[C@@H]1CN([C@@H](C)CO)C(=O)c2cccc(NS(=O)(=O)c3ccc(F)cc3)c2O[C@H]1CN(C)C(=O)Nc1ccc(C(F)(F)F)cc1,inactive
12,CC1=CC2C(C(C)C)CCC(C)(O)C2CC1 (stereo not given),inactive
13,COc1cccc(CNC(=O)C[C@@H]2CC[C@H]3[C@@H](COC[C@H](O)CN3S(=O)(=O)c3ccc(C)cc3)O2)c1,inactive
14,CNCc1nncn1C(C)C,inactive
15,CC[C@@]12O[C@H]3[C@@H](O)[C@H]4C[C@@H]3[C@@H]1[C@@H]4C(=O)N2C,inactive
16,CC1C2CCC3C4CC=C5CC(N(C)C)CCC5(C)C4CCC32CN1C (stereo not given),active
17,COc1ccc(C#Cc2cnc3c(c2)C(=O)N([C@H](C)CO)C[C@@H](C)[C@H](CN(C)C(=O)CC2CC2)O3)cc1,inactive
18,COc1ccc(NC(=O)N(C)C[C@@H]2OCCCC[C@@H](C)Oc3ccc(NC(=O)NC4CCCCC4)cc3C(=O)N([C@H](C)CO)C[C@H]2C)cc1,inactive
19,C[C@]1(C(=O)NCCN2CCOCC2)c2ccccc2C(=O)N(Cc2cc(C(F)(F)F)cc(C(F)(F)F)c2)[C@H]1c1ccc(CO)cc1,inactive
20,C[C@@H]1CCCCO[C@H](CN(C)CC2CCCCC2)[C@H](C)CN([C@@H](C)CO)C(=O)c2cc(NC(=O)CCCCCC(=O)Nc3ccccc3N)ccc2O1,inactive

row,Compound,cytotoxicity call
1,C[C@H](CO)N1C[C@H](C)[C@@H](CN(C)C(=O)Nc2ccc(C(F)(F)F)cc2)OCc2cnnn2CCCC1=O,inactive
2,Cc1ccc(S(=O)(=O)N(C)C[C@H]2Oc3ccc(NC(=O)C4CC4)cc3C(=O)N([C@H](C)CO)C[C@@H]2C)cc1,inactive
3,CC(C)NC(=O)N(C)C[C@@H]1Oc2ccc(NC(=O)C3CCCCC3)cc2C(=O)N([C@H](C)CO)C[C@H]1C,inactive
4,C[C@@H]1CN([C@@H](C)CO)C(=O)Cc2cc(NC(=O)CCN3CCOCC3)ccc2O[C@@H]1CN(C)Cc1ccc(C(=O)O)cc1,inactive
5,C[C@@H]1CN([C@@H](C)CO)C(=O)c2cccc(NC(=O)C3CCOCC3)c2O[C@H]1CN(C)S(=O)(=O)c1ccc(F)cc1,inactive
6,C[C@@H]1CN([C@H](C)CO)C(=O)Cc2cc(NC(=O)CCC(F)(F)F)ccc2O[C@@H]1CN(C)C(=O)Nc1ccc(C(F)(F)F)cc1,inactive
7,COc1ccc(NC(=O)Nc2ccc3c(c2)C(=O)N([C@H](C)CO)C[C@@H](C)[C@@H](CN(C)S(=O)(=O)c2ccc(Cl)cc2)OCCCC[C@H](C)O3)cc1,inactive
8,COc1cccc(S(=O)(=O)N2C[C@H](O)COC[C@H]3O[C@@H](CC(=O)N4CCN(C)CC4)CC[C@@H]32)c1,inactive
9,C[C@H]1CN([C@@H](C)CO)C(=O)Cc2cc(NC(=O)Nc3ccccc3)ccc2O[C@@H]1CN(C)C(=O)Nc1ccc(C(F)(F)F)cc1,inactive
10,C[C@@H]1CCCCO[C@H](CN(C)Cc2ccc(C(F)(F)F)cc2)[C@@H](C)CN([C@H](C)CO)C(=O)c2cc(NC(=O)c3ccccc3)ccc2O1,inactive
11,C[C@@H]1CN([C@@H](C)CO)C(=O)Cc2cc(NS(=O)(=O)c3cn(C)cn3)ccc2O[C@H]1CN(C)S(=O)(=O)c1cn(C)cn1,inactive
12,N[C@H]1CCCC[C@@H]1OCc1ccccc1,inactive
13,C[C@H]1CN([C@@H](C)CO)C(=O)Cc2cc(NC(=O)C3CCCCC3)ccc2O[C@H]1CN(C)Cc1ccc(-c2ccccc2)cc1,inactive
14,C#CCN([C@H](/C=C/C1CC1)[C@@H](O)Cc1ccccc1)[C@@H](Cc1ccc(-n2cc(CCC(=O)NO)nn2)cc1)C(=O)OC,inactive
15,CC(C)CC#Cc1ccc2c(c1)O[C@H](CN(C)C(=O)C1CCOCC1)[C@H](C)CN([C@@H](C)CO)S2(=O)=O,inactive
16,OCc1ccccc1OC1OC(CO)C(O)C(O)C1O (stereo not given),inactive
17,NCCOc1ccccc1Cc1ccccc1,inactive
18,C=C(C)C1CC=C(C(=O)O)CC1 (stereo not given),inactive
19,C[C@H]1CN([C@@H](C)CO)C(=O)Cc2cc(NS(=O)(=O)c3cccs3)ccc2O[C@H]1CN(C)S(=O)(=O)c1cccs1,inactive
20,CC(C)NC(=O)N(C)C[C@@H]1Oc2ccc(NC(=O)Cc3ccccc3)cc2C(=O)N([C@@H](C)CO)C[C@H]1C,inactive
